Each structure is given as a SMILES string.

Assay [1] has as its system Colletotrichum orbiculare. Particulars: 250 ppm sprayed (2.5 ml/pot) before inoculation; assessed 6 to 10 days after inoculation.
Assay [2] has as its system Phytophthora infestans. In kind it is in vivo. The settings on record: Table 7, Test F.
Assay [3] relates to Magnaporthe grisea. It is filed as in vivo. The settings on record: Table 7, Test A.

For `CCn1c(-c2ccc(F)cc2Br)c(-n2ncc(C)c2Cl)cc(Cl)c1=O` [Compound 331], the “control value, Test H (anthracnose on cucumber)” value (“control value, Test H” below) in assay [1] is reported as “H (H shows the control value more than 50%)”. In addition, the “control value, Test F (late blight on tomato)” value (“control value, Test F” for short) in assay [2] was “L (L shows the control value of 50% or less)”. For the same molecule, the “control value, Test A (blast on rice)” value in assay [3] was “H (H shows the control value more than 50%)”.

Regarding `CCn1c(-c2ccccc2Cl)c(-n2cc(F)cn2)ccc1=O` [Compound 350], the “control value, Test H” value in assay [1] is “H (H shows the control value more than 50%)”. In addition, in assay [2], the “control value, Test F” value is given as “L (L shows the control value of 50% or less)”. In addition, the “control value, Test A (blast on rice)” value in assay [3] was “L (L shows the control value of 50% or less)”.

For `CCn1c(-c2ccc(OC)cc2Cl)c(-n2cc(F)cn2)cc(Br)c1=O` [Compound 363], in assay [3], the “control value, Test A (blast on rice)” value is given as “H (H shows the control value more than 50%)”.

In the case of `CCn1c(-c2ccccc2Br)c(-n2cc(F)cn2)cc(Cl)c1=O` [Compound 357], the “control value, Test H” value in assay [1] is reported as “H (H shows the control value more than 50%)”. Also, in assay [2], the “control value, Test F” value is reported as “L (L shows the control value of 50% or less)”. Besides, in assay [3], the “control value, Test A (blast on rice)” value is recorded as “H (H shows the control value more than 50%)”.

Source of the values: US11178870B2 (priority 2017, dated 2021).
